Consider 63 compounds from PubChem BioAssay AID493035 (The Scripps Research Institute Molecular Screening Center, 2011).

The structures appear in SMILES notation. The campaign covered roughly 2,000 compounds. About 45 (2%) were called active.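 The calls were made as follows: active = inhibition above the mean of all tested compounds plus 3 SD (cut at about 49% in these data); inactive = the rest.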 The list shows a part of the results.

The experiment has as its target Perilipin-5 (Homo sapiens) + 1-acylglycerol-3-phosphate O-acyltransferase ABHD5 (Homo sapiens) (UniProt Q00G26+Q8WTS1). The experiment in a line: blockers of ABHD5 binding to perilipin-5 – cell lysate, split luciferase complementation, luminescence, NIH validation set, pilot screen (AID 493035).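 Also: 0% = DMSO only wells while the 100% control is not stated.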 The following applies: split G. princeps luciferase complementation, lysates, 4 h; at 7.9 µM, stronger effect = higher value.
UniProt Q00G26, sequence (Q00G26 whole entry, looked up): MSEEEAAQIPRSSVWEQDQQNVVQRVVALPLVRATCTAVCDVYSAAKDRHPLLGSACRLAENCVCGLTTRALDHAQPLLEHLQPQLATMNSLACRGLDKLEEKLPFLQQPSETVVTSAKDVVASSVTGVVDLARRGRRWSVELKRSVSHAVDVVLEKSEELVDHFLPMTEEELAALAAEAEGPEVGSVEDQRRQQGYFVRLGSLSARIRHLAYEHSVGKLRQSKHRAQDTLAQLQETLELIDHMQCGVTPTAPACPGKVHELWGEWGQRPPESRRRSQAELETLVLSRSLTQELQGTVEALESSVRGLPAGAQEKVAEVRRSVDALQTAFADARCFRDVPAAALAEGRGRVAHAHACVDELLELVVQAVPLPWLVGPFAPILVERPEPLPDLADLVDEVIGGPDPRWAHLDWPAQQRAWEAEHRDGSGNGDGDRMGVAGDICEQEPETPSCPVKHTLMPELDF
UniProt Q00G26, sequence (Q8WTS1 whole entry, looked up): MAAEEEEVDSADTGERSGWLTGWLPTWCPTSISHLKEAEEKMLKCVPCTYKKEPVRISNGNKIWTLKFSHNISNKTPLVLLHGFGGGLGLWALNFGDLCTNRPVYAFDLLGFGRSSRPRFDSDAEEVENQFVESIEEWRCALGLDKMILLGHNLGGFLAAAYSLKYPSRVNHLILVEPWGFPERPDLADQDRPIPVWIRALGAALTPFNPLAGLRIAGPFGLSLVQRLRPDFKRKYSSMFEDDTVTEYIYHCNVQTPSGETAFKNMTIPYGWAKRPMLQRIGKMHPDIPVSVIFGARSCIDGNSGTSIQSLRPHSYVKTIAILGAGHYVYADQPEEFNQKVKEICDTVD
By inhibition is commonly meant the drop in the measured response relative to a control, in per cent. Regarding `CC(C)OC(=O)C1C(=O)CC(C)(O)C(C(=O)OC(C)C)C1c1cccc(O)c1` (stereo not drawn), the inhibition is inactive: -0.49%. Next, `COc1ccc(CN(CCC(c2ccccc2)c2ccc(OC(C)C)cc2)C(=O)CCl)cc1OC` (stereo not drawn): active: 67%; `COc1ccc(CCN2CNc3c(c(=O)n(C)c(=O)n3C)C2)cc1OC`: inactive: -3.84%; `CCCCOC(=O)c1ccc(N)cc1`: inactive: 7.38%. As to `O=C(CS(=O)(=O)Cc1ccccc1)NCc1ccc2c(c1)OCO2`, the inhibition was inactive: -13.3%. Next, `Cc1ccc(-n2ncc3c(Nc4cccc(C(=O)O)c4)ncnc32)cc1`: inactive: 6.95%; `NCCOc1ccccc1OCCN`: inactive: 1.13%. `Cc1ccc2[nH]c3c(c2c1)CN(C(=O)CN1CCSCC1)CC3`: the inhibition is inactive: 22.9%.

Take `COc1cc(OC)cc(C(C)=O)c1`: the inhibition was inactive: -4.4%. As to `Cc1ccc2ncnc(NCCCCCC(=O)O)c2c1`, the inhibition was inactive: 3.77%. On to `CCOc1ccc2ccccc2c1CNc1nnnn1C`, for which the inhibition is inactive: -4.46%. Under `COc1ccc(OC(C)C(=O)Nc2ccc([N+](=O)[O-])cc2)cc1` (stereo not drawn) stands inactive: -3.09%; under `Cc1ccsc1C1NC(=O)c2ccccc2N1` (stereo not drawn), inactive: 0.58%; under `COc1ccc2oc(=O)c(C(=O)N3CCN(c4ccccc4)CC3)cc2c1`, inactive: 9.11%. As to `O=C(NCCCCCc1nc2ccccc2[nH]1)c1ccccc1Cl`, the inhibition is inactive: 7.9%. Take `O=C(Nc1cccc(-c2nc3ncccc3o2)c1)c1ccccc1`: the inhibition was inactive: 3.96%. In the case of `Oc1ccc(Cl)cc1Cc1cc(Cl)ccc1O`, the inhibition is inactive: -16.1%. On to `COc1ccc(OC(C)C(=O)Nc2ccccc2F)cc1` (stereo not drawn), for which the inhibition is inactive: 2.02%. For the compound `COc1ccc(/C=C/C(=O)NC(=S)NN2CCCCC2c2cccnc2)cc1` (stereo not drawn), the inhibition was inactive: 6.52%. `O=C(Nc1nc2ccccc2s1)c1ccc(F)cc1`: the inhibition is inactive: -6.53%. For `CCn1c(/C=C/c2ccccc2)nc2ccccc2c1=O`, the inhibition was inactive: 14.5%. With `CCn1c2ccccc2c2cc(CC(N)=O)ccc21`, the inhibition is inactive: -7.62%. Turning to `N#C/C(C(N)=O)=c1/ccc2c(c1)N1C3=C(CCCC3)CC3CCCCC31N=2` (stereo not drawn), the inhibition was inactive: 25.4%. For the compound `CC(=O)c1cccc2c(O)c(C3=Nc4ccccc4C3=O)[nH]c12`, the inhibition was inactive: 44.2%. With `Cc1ccc(/C=N/Nc2nc(C(C)(C)C)cs2)o1`, the inhibition is inactive: -13.8%. Next, `CC(CCCC(C)(C)O)NC(=O)c1ccc(OC2CCN(C(=O)C3CC3)CC2)cc1` (stereo not drawn): inactive: -2.91%; `COc1cc2c(cc1OC)C(c1ccc(-c3cc(Cl)ccc3Cl)o1)=NCC2`: inactive: 9.42%. For the compound `CC(C)OC(=O)C1C2C=CC3(CN(CC4CCCO4)C(=O)C13)O2` (stereo not drawn), the inhibition was inactive: -2.14%. As to `CC(C)COCC(CN(Cc1ccccc1)c1ccccc1)N1CCCC1` (stereo not drawn), the inhibition is inactive: -8.76%. Next, `CC(C)(C)c1csc(N/N=C/c2cccnc2)n1`: inactive: -3.9%; `NC12CC3CC(CC(C3)C1)C2`: inactive: -3.26%. Next, `CN1CCN(C2=Nc3cc(Cl)ccc3Nc3ccccc32)CC1`: inactive: -4.11%; `O[C@@H](CNC[C@H](O)c1ccccc1)c1ccccc1`: inactive: -2.9%. Next, `Cc1cccc(-n2c(Cc3ccccc3)n[nH]c2=S)c1`: inactive: -3.13%; `Cc1nc2ccccc2n1CC(=O)NC1CCCC1`: inactive: -8.3%; `O=C(Nc1cccc(Cl)c1)N1CCN2C(=O)c3ccccc3C12c1ccccc1` (stereo not drawn): inactive: 9.11%.

`CCn1ccnc1CN(C)Cc1cn(-c2cccc(C)c2)nc1-c1cccc(F)c1`: the inhibition is inactive: 1.16%. On to `COc1cc(C(=O)N/C(=C\c2cn(C)c3ccccc23)C(=O)NCCCO)cc(OC)c1OC`, for which the inhibition was inactive: 1.02%. Regarding `Cc1ccc2nc(N=C(N)N)nc(C)c2c1`, the inhibition was inactive: -4.02%. In the case of `CC1(C)CC(=O)c2cc(O)ccc2O1`, the inhibition was inactive: -5.07%.

With `c1cnc2c(c1)ccc1cccnc12`, the inhibition was inactive: -1.81%.

As for `CCOc1ccc(OCCSc2nc3ccccc3[nH]2)cc1`, the inhibition is inactive: -1.25%. In the case of `CN1CCc2cccc3c2[C@H]1Cc1ccc(O)c(O)c1-3`, the inhibition was inactive: 6.48%. On to `CC(C)C1CC(CCNCc2ccc(N(C)C)cc2)(c2ccccc2)CCO1` (stereo not drawn), for which the inhibition was inactive: -22.6%. Consider `CCC(NC(C)C)C(O)c1ccc(O)c(O)c1` (stereo not drawn), for which the inhibition is inactive: 4.08%. Take `COc1ccccc1-c1c(C(F)(F)F)oc2cc(OC(=O)c3ccc([N+](=O)[O-])cc3)ccc2c1=O`: the inhibition was inactive: 29.5%. Consider `Cc1cc(Cl)cc2c1NC(=O)[C@]21[C@@H]2C(=O)N(Cc3ccccc3)C(=O)[C@@H]2[C@@H]2CCCN21`, for which the inhibition was inactive: 0.92%. Next, `N/C(=N\OC(=O)CCCOc1ccc(Cl)cc1Cl)c1ccccn1`: inactive: -4.4%; `COc1cc(C2Nc3ccccc3C(=O)N2c2ccccc2)ccc1O` (stereo not drawn): inactive: 1.54%.

Consider `Cc1ccc(-c2nn(-c3cccc(F)c3)cc2CN2CCN(c3ccccn3)CC2)o1`, for which the inhibition is inactive: 3.54%. Take `Clc1cc(-c2ccc(/C=N/n3cnnc3)o2)ccc1Br`: the inhibition is inactive: 12.9%. In the case of `COc1ccc(-c2c(NC(=O)c3ccco3)n(C)c3ccccc3c2=O)cc1`, the inhibition is inactive: -7.54%. Regarding `CSCCC(NC(C)=O)C(=O)Oc1ccc2c3c(c(=O)oc2c1)CCCC3` (stereo not drawn), the inhibition is inactive: 1.97%. Regarding `CC(C)(Sc1cc(C(C)(C)C)c(O)c(C(C)(C)C)c1)Sc1cc(C(C)(C)C)c(O)c(C(C)(C)C)c1`, the inhibition was inactive: -3.81%.

On to `CC(=O)O[C@H]1C[C@@]2(C)[C@@H](C[C@@H](O)[C@H]3[C@@]4(C)CC[C@@H](O)[C@@H](C)C4CC[C@@]32C)/C1=C(\CCC=C(C)C)C(=O)O` (stereo partly drawn), for which the inhibition is inactive: -15.6%. For `CCOc1ccc(N2C(=O)CC(NCCNc3ccc([N+](=O)[O-])cn3)C2=O)cc1` (stereo not drawn), the inhibition is inactive: -3.04%. `Cc1oc(/C=N/NC(=O)CC2(C)OCCO2)cc1Br`: the inhibition is inactive: 7.06%. Consider `Cn1c(=S)n(C)c2ccccc21`, for which the inhibition is inactive: -2.37%.

`COc1ccc(C(C)=O)c2c1OCCO2`: the inhibition was inactive: 1.55%.

For the compound `CCC(=O)c1ccc(O)cc1`, the inhibition is inactive: -10.1%. As for `C=CCC1(Cl)C(=O)C(Cl)=C(N2CCOCC2)C1(OC)OC` (stereo not drawn), the inhibition was inactive: -2.17%. Consider `O=C1C=CC(=O)C(C2=C3C(=O)N(CCc4ccccc4)CC(=O)N3CCC2)=C1`, for which the inhibition is active: 74.5%. Take `C[C@]12C=CC(=O)C=C1CCC1C3CC[C@](O)(C(=O)CO)[C@@]3(C)CC3OC312` (stereo partly drawn): the inhibition was inactive: -8.77%.
